Assay results from PubChem BioAssay AID2147 (National Center for Advancing Translational Sciences (NCATS), 2009).
Among all 230,000 compounds or so, about 3,600 (1.6%) were called active. The inconclusive results got no clear call from the source; some entries with a clear call stand among them for comparison. Calls follow the shape of the dose curve; as a rule, active = well fitted inhibition curve with a large enough effect (not every such curve was filed as active); inconclusive = small, poorly fitted or top-dose-only effect, or another doubt; inactive = no such curve, though single readings can be large or run the other way. A potency beside an inconclusive call is a rough fit, not a confirmed value.

What follows are molecules tested against Lysine-specific demethylase 4E (Homo sapiens) (UniProt B2RXH2) (assay: qHTS Assay for Inhibitors of Human Jumonji Domain Containing 2E (JMJD2E)). Conditions: JMJD2E catalytic domain, FDH-coupled NADH fluorescence (FDH is formaldehyde dehydrogenase); series mostly up to 57.1 µM.
Also: nearly all actives have a fitted effect of over 50% in size.
Potency is read from the fitted curve at half-maximal effect; tags tell the direction and shape of the fitted curve.

UniProt B2RXH2, sequence (B2RXH2 whole entry, looked up, the tested form may be a part): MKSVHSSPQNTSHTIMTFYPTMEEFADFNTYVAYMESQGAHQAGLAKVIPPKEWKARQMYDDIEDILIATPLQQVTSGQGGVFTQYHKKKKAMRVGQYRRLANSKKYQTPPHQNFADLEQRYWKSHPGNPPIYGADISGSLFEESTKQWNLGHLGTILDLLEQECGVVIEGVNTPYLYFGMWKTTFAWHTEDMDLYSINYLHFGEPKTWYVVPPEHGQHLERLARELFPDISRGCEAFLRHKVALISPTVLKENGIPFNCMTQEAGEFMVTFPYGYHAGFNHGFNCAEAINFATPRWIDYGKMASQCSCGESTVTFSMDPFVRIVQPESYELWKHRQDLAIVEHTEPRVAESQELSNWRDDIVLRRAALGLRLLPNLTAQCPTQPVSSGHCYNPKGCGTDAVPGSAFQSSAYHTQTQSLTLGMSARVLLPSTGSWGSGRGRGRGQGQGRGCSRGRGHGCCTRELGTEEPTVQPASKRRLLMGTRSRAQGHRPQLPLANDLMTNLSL

SMILES	Potency
O=C1CCCC2=C1C(c1ccccc1)C1C(=O)c3ccccc3C1=N2 (configuration not stated)	inactive
COc1ccc(-c2ccc(C(=O)O)o2)c([N+](=O)[O-])c1	inconclusive: 28.2 µM [inhibitor, single point]
Nn1cnnc1N/N=C/c1cc(Br)cc(Br)c1O	inconclusive: 0.141 µM [inhibitor, full curve, poor fit]
O=C(Nc1ccccc1Cl)c1ccc(Cl)cc1Cl	inactive
O=C(Cc1cccs1)NNC(=O)C12CC3CC(CC(C3)C1)C2	inactive
CCCCc1cc(=O)oc2cc(C)cc(OCC(=O)O)c12	inconclusive: 22.4 µM [inhibitor, partial curve]
Cc1ccc(Oc2c(CO)c(-c3ccccc3)nn2C)cc1	inactive
CCCC(=O)Nc1ccc(C=C(C(C)=O)C(C)=O)cc1	inconclusive: 35.5 µM [inhibitor, single point]
CCOC(=O)c1ccc(N=CC2=C(O)CC(C)(C)CC2=O)cc1	inconclusive: 35.5 µM [inhibitor, single point]
O=C(NCCO)c1cc2ccccc2cc1O	inconclusive: 31.6 µM [inhibitor, partial curve]
COc1ccc2c(C)c(C(=O)O)oc2c1	inconclusive: 31.6 µM [inhibitor, partial curve]
N=c1n(Cc2ccccc2)c2ccccc2n1CC(O)COc1ccc(Cl)cc1Cl (configuration not stated)	inactive
CC1CCCCC1N1CCN(C(=O)c2cccc(F)c2)CC1 (configuration not stated)	inconclusive: 28.2 µM [inhibitor, single point]
Cc1cccc(C(=O)Nc2nnc(C3=COCCO3)o2)c1	inconclusive: 31.6 µM [inhibitor, single point]
CC(C)(C)C1CCc2nc(NC(=O)Cc3cn4ccsc4n3)sc2C1 (configuration not stated)	inconclusive: 7.08 µM [inhibitor, single point]
O=C(NCCN1CCCCC1)c1ccc(I)cc1	inactive
CCOC(=O)c1cc2c(=O)[nH]c(C(Cl)(Cl)Cl)nc2o1	inconclusive: 22.4 µM [inhibitor, partial curve]
C/C=C/c1ccc(OCCCCOc2c(OC)cccc2OC)c(OC)c1	inactive
CC1=[N+]([O-])C(C)(C)C(C)N(O)C1=O (configuration not stated)	inconclusive: 22.4 µM [inhibitor, single point]
COc1ccccc1-c1nnc(SCc2nc3ccccc3[nH]2)n1C	inconclusive: 39.8 µM [inhibitor, single point]
C=CCn1c(COc2ccccc2)nnc1SCC(=O)N/N=C/c1ccc(C)cc1	inactive
CN(C)/C=C/C1=CC(=O)CC(C)(C)C1	inactive
C/C=C(/C)C(=O)O[C@@H]1[C@H](OC(C)=O)c2c(ccc3ccc(=O)oc23)OC1(C)C	inconclusive: 35.5 µM [inhibitor, single point]
Cc1c(Cl)cnc(NC(=O)CSc2nnc3ccccn23)c1Cl	inconclusive: 35.5 µM [inhibitor, single point]

SMILES	Potency
CN(C)c1ccc(/C=N/NC(=O)Cn2nnc3ccccc32)cc1	inconclusive: 20 µM [inhibitor, partial curve]
CCOc1ccc2nc(N/C(N)=N/C(=S)Nc3ccc(C)c(C)c3)nc(C)c2c1	inconclusive: 22.4 µM [inhibitor, partial curve]
Cc1c(C(=O)N2CCN(Cc3ccccc3)CC2)sc2ncnc(N3CCOCC3)c12	inconclusive: 39.8 µM [inhibitor, single point]
O=C(CSc1nnc(-c2cccs2)o1)N1CCc2ccccc21	inconclusive: 39.8 µM [inhibitor, single point]
CCSC1=C(C#N)C(=O)n2c1cc1c2CCCC1	inconclusive: 39.8 µM [inhibitor, single point]
CCC(=O)NCc1csc(-c2cccs2)n1	inconclusive: 22.4 µM [inhibitor, partial curve]
CCOc1cc(/C=N/NC(=O)COc2ccc(Cl)cc2)ccc1OS(=O)(=O)c1ccccc1	inactive
O=C(O)c1ccc(S(=O)(=O)c2ccc(Sc3ccc(C(=O)O)c(C(=O)O)c3)cc2)cc1	inconclusive: 22.4 µM [inhibitor, single point]
COc1ccc(-c2cc(C(F)(F)F)n3ncc(C(=O)NCC4CCCO4)c3n2)cc1 (configuration not stated)	inconclusive: 8.91 µM [inhibitor, partial curve]
COC(=O)[C@@]1(Cc2ccc(OC)cc2)[C@H]2c3cc(C(=O)N4CCCC4)n(CCCNc4ncc(C(F)(F)F)cc4Cl)c3C[C@H]2CN1C(=O)c1ccccc1	inconclusive: 25.1 µM [inhibitor, single point]
Cc1ccccc1C(=O)Nc1nnc(-c2ccncc2)o1	inconclusive: 35.5 µM [inhibitor, single point]
CCN(CC)CCOC(=O)c1c(C)oc2ccc(OC)cc12	inconclusive: 35.5 µM [inhibitor, single point]
N#CC1=C2SCN(c3ccccc3)CN2C(=O)CC1c1c(Cl)cccc1Cl (configuration not stated)	active: 8.91 µM
CC(C)c1ccc(NC(=O)C(=O)C2C(=O)Nc3ccccc32)cc1 (configuration not stated)	inconclusive: 35.5 µM [inhibitor, single point]
O=C(CSc1nccc(-c2cccs2)n1)Nc1cccc(Cl)c1	inconclusive: 39.8 µM [inhibitor, single point]
O=c1cc(-c2ccccc2)oc2c1ccc1ccccc12	inconclusive: 35.5 µM [inhibitor, partial curve]
O=C(Nc1cccc(S(=O)(=O)N2CCCCC2)c1)c1ccc2ncsc2c1	inconclusive: 39.8 µM [inhibitor, single point]
Cc1cccc(NS(=O)(=O)Cc2ccccc2)n1	inconclusive: 28.2 µM [inhibitor, partial curve]
CNCc1ccccc1Sc1cc(O)ccc1O	inconclusive: 17.8 µM [inhibitor, partial curve]
Cc1ccc(N=Cc2sc(O)c3ccccc23)c(C)c1	inconclusive: 39.8 µM [inhibitor, single point]
O=c1c2[nH]c3ccccc3c2ncn1CCCn1ccnc1	inconclusive: 35.5 µM [inhibitor, single point]
CC1CC(C)CN(C(=O)CNS(=O)(=O)c2ccc(Br)s2)C1 (configuration not stated)	inactive
COc1ccc(C)cc1NC(=O)C(NCC1CCCO1)c1ccccc1 (configuration not stated)	inactive
COc1ccccc1CCNC(=O)c1cc(-c2ccccn2)nc2ccc(Br)cc12	inactive

SMILES	Potency
CC1(C)Oc2ccc3ccc(=O)oc3c2CC1O (configuration not stated)	inconclusive: 25.1 µM [inhibitor, partial curve]
COc1ccc(OC)c(Nc2nc(C3CC3)nc3c2nnn3Cc2ccccc2)c1	inconclusive: 31.6 µM [inhibitor, partial curve]
COc1ccc2[nH]c(=O)c(CN(Cc3ccco3)C(=O)c3ccccc3)cc2c1	inconclusive: 31.6 µM [inhibitor, partial curve]
CCCCn1c(SCC(=O)Nc2cc(NC(=O)c3ccco3)ccc2C)nc2ccccc2c1=O	inconclusive: 35.5 µM [inhibitor, single point]
COc1ccccc1/C=N/NC(=O)C1=NNC(c2ccccc2)(c2ccccc2)C1	inconclusive: 39.8 µM [inhibitor, single point]
CCOC(=O)c1[nH]c(C)c(/C=N/O)c1C	inactive
CCCCN(CC)S(=O)(=O)c1ccc2c(c1)n(C)c(=O)c(=O)n2C	inconclusive: 35.5 µM [inhibitor, single point]
O=C(Nc1ccc2snnc2c1)N1CCSCC1	inconclusive: 39.8 µM [inhibitor, single point]
Oc1ccc(-c2csc(NCc3ccco3)n2)cc1	inconclusive: 25.1 µM [inhibitor, single point]
Cc1nn(CCc2n[nH]c(=S)n2C2CCCCC2)c(C)c1Br	inactive
CCCC1=[N+](CC(C)=O)CCn2c(C)ccc21	inconclusive: 31.6 µM [inhibitor, partial curve]
N#Cc1c(Cl)nsc1NC(=O)c1ccccc1	inactive
COc1ccc(-c2oc(NC(=O)c3ccc(C)cc3)c(C#N)c2-c2ccc(OC)cc2)cc1	inactive
CCn1c(-c2ccccc2)c[nH]c1=S	inconclusive: 28.2 µM [inhibitor, partial curve]
Cc1ccc(C(=O)N/N=C\C=C\c2ccc(Br)cc2)cn1	inactive
CCSc1nc2ccc(OC)cc2cc1C#N	inconclusive: 39.8 µM [inhibitor, single point]
CC1(C)CC(=O)c2cc(OCC(=O)NCCCN3CCN(c4ccc(F)cc4)CC3)ccc2O1	inconclusive: 25.1 µM [inhibitor, partial curve]
CSC1=N/C(=C\c2ccc(C)o2)C(=O)S1	inactive
Cc1ccc2oc(=O)c3cc(C(=O)NCCCN4CCc5ccccc5C4)sc3c2c1	inconclusive: 25.1 µM [inhibitor, single point]
Cc1[nH]c2ccc3c(ncn3CCC#N)c2c1C	inconclusive: 20 µM [inhibitor, partial curve]
CCOC(=O)c1c(-c2ccc(C)o2)csc1NC(=O)CSc1nncs1	inconclusive: 35.5 µM [inhibitor, single point]
CCOC(=O)C(C)n1cnc2c(cnn2-c2ccc(Cl)cc2)c1=O (configuration not stated)	inconclusive: 31.6 µM [inhibitor, single point]
CC(NC(=O)C1CCCN(S(=O)(=O)c2cnc[nH]2)C1)c1ccccc1 (configuration not stated)	inactive
COc1ccc(C2C(C#N)=C(N)N3C(=C2C#N)Sc2ccccc23)cc1 (configuration not stated)	inconclusive: 39.8 µM [inhibitor, single point]
